In the supplement of paper PMC12632987:
Over roughly 2,300 sequences, “median log2 fold change of GCK-ALFA target abundance (FLAG IP / Myc IP barcode read proportion)” has its median near 0.095; the lowest 2% begin near -0.47. This is one part of the list.

B1: LC3A_102_154 (protein)
chain: SAEEKIEEAFEEALRELEEAVEEEEHLSEEEKEEALRLARRALEATRENAITEEQHGFVDLVALDERDEALERLRELSPELARLTEEKAEELRKLIKELS
B2: LC3A_28_1089 (protein)
chain: SALEAQLAAALAEARAARDAGVEATLTITVGGDATEADIAKLKATLTEIAEIAKELPRLAVVINLTGPNAQAKATEISKHAEELEKEYPNLTVIIALDED
B3: LC3A_23_615 (protein)
chain: KYRLEVTIDIIVPKEEAEATVAALRATLEAVLAANADKIIEHELEVELEELEDGTTLITIELTVLIDGDKAEAEAIANEIVSAVDATAPDAVISAEVSKV
B4: LC3A_3_1566 (protein)
chain: LDKEVEEALKELKEAGASEEVLKKVKEAAELLKEKGYDKALKTFIEEMKKLKDAPDEILLDFAEEVIELIKNEDLSEEELSKKIKELARLAKLESEIIEL
B5: LC3A_28_699 (protein)
chain: SATEKEIERAKKIAEEAIEKGEDALIELTISPETTAEEVDKILATIEELAKKMSKVGKLYVVVDVESGVDQANIDKIADRLDELEAEIPNLTSIIALDEE
B6: LC3A_3_1568 (protein)
chain: MEEKIKKALERLREAGFSEEVIKAAEEAFRALAEKGLEESMEKVLEAFLKMKNAPEELLIDFARDIKEIVETSKGNKEEIEKKIEEEIKIYLSESEIIEL
B7: LC3A_free_46_2418 (protein)
chain: YRGIVEADLLGLTEEQVEEVIERVKEKAKRLEEEYGVKVEVEVEVEKNEDGTYFLRIKVTIEGEDREKVEKAANEVVDLLEKLADEYGAAMIISIEFEEL
B8: LC3A_16_522 (protein)
chain: QAELQQKLELLQAASAALDSDEAEFVALLIALDPARAAEIRAAAATPTARERLARLAAEIAAELLEQLKKEGTPEQQATAENIRTLFEVEADLHAVRAEE
B9: LC3A_102_134 (protein)
chain: EEEKVLKKALERARKEIEKHAEERPELTEEEKKKLIELSEKAIEAAAKSAITYKKHGFVDLEAESKMLEALEEIEKMDPEAAKITRKVIEELEKEIEKLY
B10: LC3A_132_268 (protein)
chain: SEELLKKALEELKELLDKIVELLKEGKDPSPQIKKLEEKAEEYAEKLSLEETEKLVRESIEYAEKLFKEKLDPNNKEAIRTLDIIEMLLEGVLIEKELRS
B11: LC3A_59_2017 (protein)
chain: MAEIEAVRERLRAAADDIDAFVAIVREALERFRDDPEKRRALIDAVMEVIGEELNADEDELEKLREEMLALIDSGKPWEEVIAEITDLVRELLLLIPIEE
B12: LC3A_141_378 (protein)
chain: KTETRTYELKDLPADEAEKKGIEKVKELFEKAKKEGAKTIKINITVEATVNGKTHKEEDTLEGPVENESIEGGAEVFLGLVALKYEGEKLNVTITATFTF
B13: LC3A_28_638 (protein)
chain: MTIEEEIERLLEEAKAAAEAGESKVLTLTVPGDSDEEDIELIIEKLEEVAEILKDLPSTSIIIDVDGDVPQEHIDLLADKADEIEEKYPNVTVIIALDEK
B14: LC3A_28_725 (protein)
chain: NELEESIEKALKKAKELAEKGKSDVIEITIPGNATQEDIEKVIKALEEIAEIVKDLESVSIVIDVEGGVKQEHIDKLADKAEEIEKKYPNVTVIIALDED
B15: LC3A_free_39_2239 (protein)
chain: SKEEIEALIKEVAKESGLPYEEVRAKVEEIKEVAGLSDEQILKIVKAILEAVKAGADAKEILEESLAIAKELKAQGKSPEEILEAILEHIEDMRNLVPLD
B16: LC3A_28_740 (protein)
chain: SALEEQLAAALARAREAAAAGESAVIEITVPGDADEEDIEKVIKALEEIAAILADTPDQAIVINIEGGVKEEHINKIADAAEEIEAKYPNVTVILALDEE
B17: LC3A_3_1573 (protein)
chain: KEEKLKAYIEKLRKAGFSEEVIEAARKALEALLAKGAEKAADIVLETLLKLKDAPDELLIAFLEDVIALVETDKGSKEELTKKVEELATTFLNEAEIEEL
B18: LC3A_3_1777 (protein)
chain: MEELIEETLEELRRAGKSEETIEAAREAMELLKERGYEEALKTLAEETRELLDIPDEILLDMLEEVLEKLKTEDLSEEEVIEFIKEEAELARNESEIEEL
B19: LC3A_28_854 (protein)
chain: SATEESIEKARAELAAARAAKEPAVITVTVRSDVTEEEVERVIELIDEAAEASKEVPDLALIIDFDGEIDPEHLQRIMDRGEEAEERNPTLTVIFALDEE
B20: LC3A_28_951 (protein)
chain: MSLEERLAAALAEAKAAAAAGEPAVITITVPGDATEEDIEKVIEALEEIAEILKDVKGAAIVIDVEAGVKQEHIDKLADAAEEIEKKYPNVTVIIALDED
B21: LC3A_3_1347 (protein)
chain: MKELIEAAVARLRAAGFSEEVLAAARAAMEALAALGHEEGIERLTEVLLRHRDAPPEHLVEALRNLTAELERNPDLTEEEVRELIELFDSELEIEPLEEE
B22: LC3A_28_1167 (protein)
chain: SKTEKSIEEALKKAKEAAKKKEPTVIEIYVPGGVTEEETEKVIKAIEEIAELLKDIKGSAIVIDIDSGVKQEHIDKIIEKAEEVEEKYPNINVIIALDED
B23: LC3A_127_184 (protein)
chain: ELKKLAEELIKKLEKAIEELQKENYNEEEIKKLLKEAKELAKKAVKLDPSFEPVLKDIEEAQKLFEQLLKAPEEEKESLREHLIMLLDGAIIEVESLLLK
B24: LC3A_free_8_2524 (protein)
chain: SKQEFANKATEVLDELEEKLRKALEELGASRLDILEAEVLVGSIIAEVISLSDKEPEEQLKAIKEGLKDLVEELEKYKETVKKLADEALKKIEEIKKELE
B25: LC3A_102_150 (protein)
chain: LPKETQEKIEKVIEETLKKVEELAKGLPEEERKEALEVAREALEAARRNAITLAQHGYTDIEEEDKIIENLEKLEKISPELAEVVRKAIEEIEKIIKESA
B26: LC3A_28_1114 (protein)
chain: SPIDENLAAALAEARAAAAAGEPVVVTITVSADDTQEDIDKVIATLKEIADILKDVKDAAIIIDLDGKVPQEHLDKLADTAEEIEKKYPNITVIIALDEE
B27: LC3A_28_1001 (protein)
chain: NAIEANLEEVLAQAKEAKEKGEPVVLTIKVSGKATQEDIDKIIEKLEEIAEVLKDIKGAAIIIDIDGKVPQEFIDKIADKAEEIEEKYPNITVIIALDED
B28: LC3A_3_1715 (protein)
chain: MEKIKEEILKTLKEQGKSEETIKAAEELLEALEEKGYEKAAETLLEEVKKLKNVSSEILLAMFEDLLLKVKEENLNEEEVIKEIEEEARVAKNEQEIDDL
B29: LC3A_free_8_2527 (protein)
chain: SVQELVDQLTADLDELEAALVAKAKELGLSQLDINELELAVGEAKIEIIELIDKSKEEILKKLREELKEIIELAKELSPEVAKLAKEKSAEILARAEKMI

target: MAP1LC3A, Q9H492; assay: median log2 fold change of GCK-ALFA target abundance (FLAG IP / Myc IP barcode read proportion) (log2 ratio); each designed protein is fused to an ALFA-tag nanobody in HEK293 cells to bring the named protein to FLAG-tagged glucokinase (GCK); Myc marks an untargeted standard; higher = target protein stabilised (more abundant); conditions: target protein: 3xFLAG-MCP-GCK-ALFA reporter; HEK293 landing pad (RPLP)
In short: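 HEK293 landing-pad cells received a recombined binder library fused to the ALFA nanobody and were induced with 2 μg mL^−1 doxycycline, then transfected with a plasmid encoding a FLAG-tagged target and a Myc-tagged standard. Lysates were collected after 48 h for anti-FLAG and anti-Myc immunoprecipitation, and the circular RNA barcodes were reverse transcribed, amplified and sequenced. Target abundance for each binder is the median log2 ratio of FLAG to Myc barcode read proportions. Barcodes had to reach a proportion of at least 10^−7 in both replicates, each binder needed at least 3 barcodes per replicate, a pseudocount of 10^−6 was applied, and the two replicates were pooled.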

Row | Binder | median log2 fold change
1 | B1 | -0.0532
2 | B2 | 0.274
3 | B3 | -0.336
4 | B4 | 0.0841
5 | B5 | 0.0401
6 | B6 | 0.521
7 | B7 | 0.196
8 | B8 | 0.354
9 | B9 | 0.0657
10 | B10 | 0.248
11 | B11 | 0.0767
12 | B12 | 0.304
13 | B13 | 0.091
14 | B14 | 0.164
15 | B15 | 0.294
16 | B16 | 0.0876
17 | B17 | 0.0873
18 | B18 | -0.0532
19 | B19 | 0.0188
20 | B20 | -0.00138
21 | B21 | 0.334
22 | B22 | -0.386
23 | B23 | 0.188
24 | B24 | -0.575
25 | B25 | 0.0429
26 | B26 | -0.0789
27 | B27 | 0.0763
28 | B28 | 0.262
29 | B29 | 0.0525
